# Variants at the floor of the assay are shown more often than the library holds them.
# B1: TPR 5TU (parent)
# chain: GGAUCUUCUCGAUCUAACAAAAAAGACAAAUCUGCCACAAAGCUUGAGAGCAUCUUCGGAUGCAGAGGCGGCAGCCUUCGGUGGCGCGAUAGCGCCAACGUUCUCAACUAUGACACGCAAAACGCGUGCUCCGUUGAAUGGAGUUUAUCAUG
# Variants of: B1
# Assay: polymerase ribozyme fitness, log enrichment relative to wild type (log ratio); higher = more active; in vitro selection for triplet polymerase activity
# Summary of the method: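 Mutant libraries for each subunit of a heterodimeric triplet polymerase ribozyme were made by PCR and then transcribed. Each library underwent one round of in vitro selection in triplicate: annealing with a biotinylated primer, the partner subunit and triplets, frozen incubation at −7 °C, gel excision of extended constructs, streptavidin-bead capture and RT-PCR. Input and output libraries were Illumina-sequenced, and only genotypes with ≥10 input reads and ≥1 read per output were kept. Fitness is the logarithm, base 2, of genotype enrichment over wild-type enrichment, computed from inverse-variance-weighted replicate averages.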
row,Variant,polymerase ribozyme fitness (log ratio)
1,C35G G59A G62C G88U,≤ -4.2
2,C35G G65C G84A,≤ -4.2
3,C35G G80C A122C,≤ -4.2
4,C35G G83C A89G,≤ -4.2
5,C35G G83C A91C C108U G136U,≤ -4.2
6,C35G G84A C96U A107G G140A,≤ -4.2
7,C35G G86A A120C C125U G143C,≤ -4.2
8,C35G G88A C95G C123A A138U,≤ -4.2
9,C35G G92U C103G,≤ -4.2
10,C35G U44A C99A A106G A142U,≤ -4.2
11,C35G U55G A73C A106U G126C U145C A150G,≤ -4.2
12,C35G U55G U61A C79G C93G A107G,≤ -4.2
13,C35G U78G C99A,≤ -4.2
14,C35G U82G G83A C93G,≤ -4.2
15,C35G U90C A97G A137C G141A,≤ -4.2
16,C35U A40C C54A U90C A137G,≤ -4.2
17,C35U A41C G81A U102G C108G A110U,≤ -4.2
18,C35U A41C U53A C75G C114U G136U,≤ -4.2
19,C35U A47C A60U C103A,≤ -4.2
20,C35U A47C C87U U101G A115U A120U,≤ -4.2
21,C35U A47G C99G G152A,-3.48

row,Variant,polymerase ribozyme fitness (log ratio)
1,C35U A47U C105G U139A,≤ -4.2
2,C35U A49C U53A G67A C87A A115G G141A C149G,≤ -4.2
3,C35U A49G A97G A119C,-2.09
4,C35U A49G G70A C95G C105A,≤ -4.2
5,C35U A52C C76A A120U C125G A137G,≤ -4.2
6,C35U A52G A60C A121U,-3.29
7,C35U A73G,-0.161
8,C35U A73U G140U U146A,≤ -4.2
9,C35U A89U C95A G126A A142C,≤ -4.2
10,C35U A91U U127C A150U,≤ -4.2
11,C35U A97C A115C G117A G143C,≤ -4.2
12,C35U A106U A142U,-4.15
13,C35U A107C G112U U134G U139C,≤ -4.2
14,C35U A115U,-1.54
15,C35U C36A U55G U127A,-3.9
16,C35U C43A C95G U101C,≤ -4.2
17,C35U C51G G59A C85U G128U G141A,≤ -4.2
18,C35U C51U A66C C76U G143U,≤ -4.2
19,C35U C51U A73U C105U,≤ -4.2
20,C35U C54G A66U C79A G80A G83C G84A C96U U101G U148C,≤ -4.2
21,C35U C54U C72U G88U A89U U102A A119G G124C G141C,≤ -4.2

row,Variant,polymerase ribozyme fitness (log ratio)
1,C35U C69A G94C U102A A110G,≤ -4.2
2,C35U C72U C95U C105A C125A U134G U148C,≤ -4.2
3,C35U C75A G86A A107G G140U,≤ -4.2
4,C35U C76U C99U,-1.5
5,C35U C79A G81U C93A U102A U127A,≤ -4.2
6,C35U C85A,-1.42
7,C35U C85G G88U U134A,≤ -4.2
8,C35U C85U,-0.375
9,C35U C93A A120C G126A A150U,-4
10,C35U C93G C125U A137U,≤ -4.2
11,C35U C93U U134A U139G G143A,≤ -4.2
12,C35U C96G,-0.818
13,C35U C96U,-0.126
14,C35U G46U C96U,-1.23
15,C35U G48U U56G A60C G74A C96G U104G A107U,≤ -4.2
16,C35U G50A U77A G94A A115C G133C,≤ -4.2
17,C35U G50C C87U A150C,≤ -4.2
18,C35U G50U G59C A60U C85A G94C G141A,≤ -4.2
19,C35U G58A A91G G133U,≤ -4.2
20,C35U G74A C95U C118A U134G U148A,≤ -4.2
21,C35U G81U U82G G88U G94U U139C C149A,≤ -4.2

row,Variant,polymerase ribozyme fitness (log ratio)
1,C35U G83A,-0.173
2,C35U G83U G94A C96A A106U U139A G140U G152U,≤ -4.2
3,C35U G86A C95G C125A,≤ -4.2
4,C35U G88U U90A U101A,≤ -4.2
5,C35U G92A C96A,≤ -4.2
6,C35U G136A G143U,-3.68
7,C35U G141A,0.194
8,C35U U55A C93A C116U G136A C149G,≤ -4.2
9,C35U U55G A91G A106G G141A,≤ -4.2
10,C35U U55G C76G G133C U135G,≤ -4.2
11,C35U U56A U61A C63U A64G,≤ -4.2
12,C35U U56C C63U A91U,≤ -4.2
13,C35U U56C U90G U139G,≤ -4.2
14,C35U U78A C103G A115G G124A A147G,≤ -4.2
15,C35U U127G,-4.01
16,C36A A40C G94U A107U C116A A122U,≤ -4.2
17,C36A A49C A60C C85G,≤ -4.2
18,C36A A49C C54U G84A C105G C118A U151C,≤ -4.2
19,C36A A49C U146G,≤ -4.2
20,C36A A60C G71C C79A G84A A91G C93G,≤ -4.2

# — the RNAGym collection of RNA variant scans (doi:10.1073/pnas.2313332121)
